± gives the standard deviation of the averaged measurements. Whole data set: some 33,000 sequences, median “E-score (dimensionless, -0.5 to 0.5)” near -0.049, cut for the highest 2% near 0.37. The list shows a part of the results.
Test system: T1, PmTbr T-box DNA-binding domain (GST fusion)
T1 sequence: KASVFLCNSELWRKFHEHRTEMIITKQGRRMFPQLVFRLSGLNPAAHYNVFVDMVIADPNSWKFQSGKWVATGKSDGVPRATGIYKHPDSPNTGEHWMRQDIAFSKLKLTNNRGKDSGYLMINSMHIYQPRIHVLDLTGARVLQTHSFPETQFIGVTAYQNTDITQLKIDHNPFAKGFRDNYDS
Assay: PBM E-score of 8-mer (E-score (dimensionless, -0.5 to 0.5)); Tbr is Tbrain of the sea star Patiria miniata (Pm) or the sea urchin Strongylocentrotus purpuratus (Sp); higher = stronger binding preference; most listed sequences are background and not binding sites
Conditions: the construct has about 5 more residues each side
Outline: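 Primer extension turned Universal Agilent oligonucleotide arrays double-stranded. They were incubated with 200 nM protein in PBS (pH 7.5); the protein was a GST-fused Tbr T-box DNA-binding domain expressed in BL21 E. coli at 20 °C and purified on glutathione. Every ungapped 8-mer was scored from the scanned, quantified probe intensities, and the Universal PBM Analysis Suite gave each an enrichment E-score averaged over duplicate arrays.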

Sequence | PBM E-score of 8-mer
CCAGACTA | -0.282 ± 0.089
CCAATTAG | 0.0274 ± 0.061
ATGGGACC | -0.24 ± 0.079
CTCGGGAA | -0.092 ± 0.018
CTAGCGCA | -0.0621 ± 0.011
AGTAACAC | 0.393 ± 0.025
CAGAGCTA | -0.349 ± 0.055
AAAAGATT | -0.136 ± 0.0087
CGCACAAG | 0.04661 ± 0.00035
CACATTTC | 0.3486 ± 0.0015
CAATACAA | -0.215 ± 0.067
GGTGCCTA | 0.0798 ± 0.0059
CATAACTA | -0.0882 ± 0.002
GAGGAGAA | -0.158 ± 0.088
CAGGGAGC | -0.152 ± 0.019
CTCAGTGC | -0.028 ± 0.02
CGGGTACG | -0.125 ± 0.017
CTTAGCCA | -0.0235 ± 0.029
ACGAAGAG | -0.0865 ± 0.021
AGAGCTAA | -0.0863 ± 0.067
CCGGATGC | -0.0416 ± 0.028
AAGGAGAA | -0.289 ± 0.11
ATACTCTG | -0.0952 ± 0.035
ATAGTTGA | -0.0889 ± 0.077
ACCCAACA | 0.19 ± 0.061

Sequence | PBM E-score of 8-mer
CTTGATTC | -0.158 ± 0.019
ATCTAATC | -0.133 ± 0.05
CTAGTAAG | -0.0596 ± 0.04
ACAGAAGG | 0.131 ± 0.03
CTTGAGTA | -0.199 ± 0.047
ACGCTACT | 0.0278 ± 0.048
ATTTATAA | 0.0352 ± 0.066
AGATCATC | 0.0358 ± 0.017
CAGGCAGC | 0.0402 ± 0.07
ACAGCCTG | 0.122 ± 0.014
CGGCACAC | 0.124 ± 0.063
CATGATGG | -0.111 ± 0.0098
AGGTAGCC | -0.188 ± 0.07
GAAGCAGC | -0.0994 ± 0.0054
CATATTGC | 0.0299 ± 0.017
CATCGGCC | -0.2345 ± 0.0021
ATTGTTGA | 0.167 ± 0.0035
AAGTAGTG | 0.124 ± 0.008
ATAACACA | 0.3597 ± 0.0034
ATGCAAGC | -0.113 ± 0.026
AGTTAGAC | -0.197 ± 0.038
ATAGATCA | -0.236 ± 0.047
GGTAGCAA | 0.168 ± 0.028
TATCTAGA | -0.141 ± 0.0091
AGTCAGAA | -0.159 ± 0.05

Sequence | PBM E-score of 8-mer
CTGGCAAC | 0.184 ± 0.08
GATTGCAC | 0.145 ± 0.011
CGAATTGA | -0.21 ± 0.018
TGTGAAAA | 0.38 ± 0.057
ACATATAG | -0.1 ± 0.053
AAGGAACT | -0.103 ± 0.015
CTCCACCC | 0.0426 ± 0.037
GATAGATA | -0.147 ± 0.035
GATCAGGA | -0.0417 ± 0.051
AAGATGGT | -0.0973 ± 0.0091
ACAGGACT | -0.0594 ± 0.0031
ACGTAAAG | -0.103 ± 0.042
CCTCTGCG | -0.0574 ± 0.059
AGTATTGA | -0.19 ± 0.082
AAACGACA | 0.0771 ± 0.079
ACGCGTCG | 0.308 ± 0.0062
CGATTTTC | 0.191 ± 0.044
CGCGTGTA | 0.0515 ± 0.031
TCTGTACA | 0.0305 ± 0.035
CCTAGTCC | -0.0967 ± 0.023
AGATCTGA | -0.0413 ± 0.036
AAGGCGGG | -0.0464 ± 0.047
CTCAGCCC | -0.148 ± 0.021
GTCGCTCA | 0.0523 ± 0.0048
TCCATCCA | -0.105 ± 0.033

Sequence | PBM E-score of 8-mer
TCCTTCAA | -0.269 ± 0.065
ACGATGTG | 0.25 ± 0.067
CATTCTCC | 0.0365 ± 0.027
AGCTACGA | -0.0695 ± 0.044
GACTAGTA | -0.0454 ± 0.07
ACTATTTC | -0.214 ± 0.055
ACCCCCCG | -0.0145 ± 0.075
ACAAGCTC | 0.107 ± 0.052
CGAAGGAC | -0.124 ± 0.056
CACTGTCG | 0.173 ± 0.04
GGCCAGCC | -0.316 ± 0.069
AATCAGAA | -0.143 ± 0.0045
ATCTCCAT | -0.0834 ± 0.041
AATTTGAG | -0.197 ± 0.047
GGACTGAC | -0.0902 ± 0.049
ATTTATTA | -0.251 ± 0.096
TTTGAAAA | -0.171 ± 0.074
TGGACAAA | 0.026 ± 0.13
CCACTGAC | 0.12373 ± 0.00011
GATATCAC | 0.331 ± 0.021
CGTTGCAC | 0.19 ± 0.043
CCGTTTCG | -0.117 ± 0.097
AATTCGAC | -0.0254 ± 0.029
ACAGTTCG | 0.161 ± 0.025
CGCACCGA | 0.0275 ± 0.11

Sequence | PBM E-score of 8-mer
AGAGCGTA | -0.331 ± 0.071
CTTGTGCA | -0.0805 ± 0.008
ACCCTACC | 0.000975 ± 0.068
TACGATGA | -0.0054 ± 0.016
CCTGTAGC | 0.122 ± 0.0057
CTCTGGGC | -0.0481 ± 0.025
GCCTTAAC | 0.0844 ± 0.0024
AGGGGTAA | -0.18 ± 0.0035
AACACCGG | 0.155 ± 0.04
CGAGGCGC | 0.324 ± 0.02
AACCGGGG | -0.044 ± 0.017
GACGCGCA | -0.111 ± 0.016
AATGACGC | 0.125 ± 0.0051
AGTGAGCA | 0.0767 ± 0.028
ATCGAGAG | 0.0224 ± 0.029
CGACGCGC | 0.189 ± 0.041
TATCATAA | -0.00543 ± 0.023
CGAACCGC | -0.114 ± 0.061
GCGCACAC | 0.158 ± 0.038
CGCAACGC | 0.057 ± 0.051
ACAGTTTA | 0.179 ± 0.038
GGGGATAC | -0.113 ± 0.01
CAAGTCAC | 0.269 ± 0.022
GAGCACCC | -0.19 ± 0.1
CAGATTTC | 0.0631 ± 0.017

Sequence | PBM E-score of 8-mer
CGGATTAC | -0.19 ± 0.02
CCTAGAGC | -0.0438 ± 0.027
CACGCCTA | 0.365 ± 0.012
GGCTTTCA | -0.0688 ± 0.0027
GTTTCACA | 0.36 ± 0.027
CGTTGGAG | -0.0771 ± 0.11
GCCGCCCA | -0.1517 ± 0.00064
GACTGCCA | 0.119 ± 0.018
ACGTGCCC | -0.0993 ± 0.1
AGTCAAAG | -0.132 ± 0.081
ACGCACAA | -0.0487 ± 0.033
AATGAAGG | -0.264 ± 0.034
CCTCGATA | -0.172 ± 0.0073
GCTTCCTA | -0.256 ± 0.015
AACAAACG | -0.122 ± 0.015
AGTCTGGA | -0.244 ± 0.035
TCTCTACA | -0.048 ± 0.038
GCGGTCCC | -0.123 ± 0.0081
ATGAAAGC | 0.0125 ± 0.027
TTAGGGAA | -0.163 ± 0.016
CAGAGAAC | -0.0252 ± 0.054
AGGCACGA | -0.0253 ± 0.043
ATAACGTC | -0.0778 ± 0.044
GCTTGAAA | -0.188 ± 0.036
GCGCTTCC | 0.117 ± 0.046

Sequence | PBM E-score of 8-mer
GGCAGACA | -0.107 ± 0.048
GCCCCAAA | 0.078 ± 0.024
TCGCTTCA | 0.177 ± 0.02
CTTTGTCA | 0.308 ± 0.036
ACCGCAAG | 0.0383 ± 0.04
AGGAATGG | -0.152 ± 0.069
GATCATAC | -0.0142 ± 0.05
AGACTTCC | -0.0382 ± 0.12
CGACCTAG | 0.069 ± 0.019
AATACACC | 0.1241 ± 0.0005
ATACAAGC | -0.14 ± 0.025
CGACTGGC | -0.01 ± 0.034
ACATGTGA | 0.298 ± 0.025
CAGGGTGG | 0.0511 ± 0.034
CTGTTGAC | 0.121 ± 0.061
ACTTTATA | -0.0251 ± 0.092
CAAAATAA | -0.0132 ± 0.13
ACGTCCTC | -0.0662 ± 0.049
AGATACGC | 0.00658 ± 0.015
GATGACCA | -0.0866 ± 0.028
ATTCTACC | -0.0556 ± 0.0063
CACATATC | 0.241 ± 0.013

— the supplement of paper PMC4166925
